Test results: patent publication US5459237A, “Peptide compositions and uses therefor” (priority 1992, dated 1995)
In brackets after ≈: the same amount, converted by molar mass. Not every detail of the peptide structures is certain; ends, links or a residue may be inferred. Square brackets hold non-standard residues; d marks the D form. Peptide text beside a SMILES is read from it. Phe(4-NH2) = Nc1ccc(C[C@H](N)C(=O)O)cc1; Nle = CCCC[C@H](N)C(=O)O; Orn = NCCC[C@H](N)C(=O)O; Nva = CCC[C@H](N)C(=O)O

Assays:
E. coli ATCC 25922 = assay: Antibacterial assay, broth microdilution MIC; assay type: cell-based; conditions: Mueller Hinton broth, 16-20 hours at 37° C., lowest concentration producing a clear well
S. aureus ATCC 25923 = assay: Antibacterial assay, broth microdilution MIC; assay type: cell-based; conditions: Mueller Hinton broth, 16-20 hours at 37° C., lowest concentration producing a clear well

In the case of CC[C@H](C)[C@H](NC(=O)[C@H](CCCCN)NC(=O)CNC(=O)[C@H](C)NC(=O)[C@@H](NC(=O)[C@H](Cc1ccc(N)cc1)NC(=O)[C@H](C)NC(=O)[C@@H](NC(=O)[C@H](CCCCN)NC(=O)CNC(=O)[C@H](C)NC(=O)[C@@H](NC(=O)[C@H](Cc1ccc(N)cc1)NC(=O)[C@H](C)NC(=O)[C@@H](NC(=O)[C@H](CCCCN)NC(=O)CNC(=O)[C@H](C)NC(=O)[C@@H](NC(=O)[C@@H](N)Cc1ccc(N)cc1)[C@@H](C)CC)[C@@H](C)CC)[C@@H](C)CC)[C@@H](C)CC)[C@@H](C)CC)C(=O)N[C@@H](C)C(N)=O [Peptide (SEQ ID NO:41), (Xaa Ile Ala Gly Lys Ile Ala)3 --NH2] (H-[Phe(4-NH2)]IAGKIA[Phe(4-NH2)]IAGKIA[Phe(4-NH2)]IAGKIA-NH2), the “MIC (E)” value (E. coli ATCC 25922) is reported as 128 µg/mL (≈ 59.1 µM) and the “MIC (S)” value (S. aureus ATCC 25923) is reported as 64 µg/mL (≈ 29.6 µM).

With CC[C@H](C)[C@H](NC(=O)[C@H](Cc1ccc(N)cc1)NC(=O)CNC(=O)[C@H](C)NC(=O)[C@@H](NC(=O)[C@H](CCCCN)NC(=O)[C@H](C)NC(=O)[C@@H](NC(=O)[C@H](Cc1ccc(N)cc1)NC(=O)CNC(=O)[C@H](C)NC(=O)[C@@H](NC(=O)[C@H](CCCCN)NC(=O)[C@H](C)NC(=O)[C@@H](NC(=O)[C@H](Cc1ccc(N)cc1)NC(=O)CNC(=O)[C@H](C)NC(=O)[C@@H](NC(=O)[C@@H](N)CCCCN)[C@@H](C)CC)[C@@H](C)CC)[C@@H](C)CC)[C@@H](C)CC)[C@@H](C)CC)C(=O)N[C@@H](C)C(N)=O [Peptide (SEQ ID NO:42), (Lys Ile Ala Gly Xaa Ile Ala)3 --NH2] (H-KIAG[Phe(4-NH2)]IAKIAG[Phe(4-NH2)]IAKIAG[Phe(4-NH2)]IA-NH2) the “MIC (E)” value (E. coli ATCC 25922) was 64 µg/mL (≈ 29.6 µM) and the “MIC (S)” value (S. aureus ATCC 25923) was 16 µg/mL (≈ 7.39 µM).

In the case of CC[C@H](C)[C@H](NC(=O)[C@H](CCCCN)NC(=O)CNC(=O)[C@H](C)NC(=O)[C@@H](NC(=O)[C@H](CCCCN)NC(=O)[C@H](C)NC(=O)[C@@H](NC(=O)[C@H](CCCN)NC(=O)CNC(=O)[C@H](C)NC(=O)[C@@H](NC(=O)[C@H](CCCCN)NC(=O)[C@H](C)NC(=O)[C@@H](NC(=O)[C@H](CCCCN)NC(=O)CNC(=O)[C@H](C)NC(=O)[C@@H](NC(=O)[C@@H](N)CCCCN)[C@@H](C)CC)[C@@H](C)CC)[C@@H](C)CC)[C@@H](C)CC)[C@@H](C)CC)C(N)=O [Peptide (SEQ ID NO:45)] (H-KIAGKIAKIAG[Orn]IAKIAGKI-NH2), the “MIC (E)” value (E. coli ATCC 25922) is reported as 4 µg/mL (≈ 2.02 µM) and the “MIC (S)” value (S. aureus ATCC 25923) is reported as 16 µg/mL (≈ 8.09 µM).

With CCCC[C@H](NC(=O)CNC(=O)[C@H](C)NC(=O)[C@@H](NC(=O)[C@H](CCCCN)NC(=O)[C@H](C)NC(=O)[C@@H](NC(=O)[C@H](CCCCN)NC(=O)CNC(=O)[C@H](C)NC(=O)[C@@H](NC(=O)[C@@H](N)CCCCN)[C@@H](C)CC)[C@@H](C)CC)[C@@H](C)CC)C(=O)N[C@H](C(=O)N[C@@H](C)C(=O)N[C@@H](CCCCN)C(=O)N[C@H](C(=O)N[C@@H](C)C(=O)NCC(=O)N[C@@H](CCCCN)C(=O)N[C@H](C(=O)N[C@@H](C)C(N)=O)[C@@H](C)CC)[C@@H](C)CC)[C@@H](C)CC [Peptide (SEQ ID NO:47)] (H-KIAGKIAKIAG[Nle]IAKIAGKIA-NH2) the “MIC (E)” value (E. coli ATCC 25922) was 4 µg/mL (≈ 1.95 µM) and the “MIC (S)” value (S. aureus ATCC 25923) was 4 µg/mL (≈ 1.95 µM).

CCC[C@H](NC(=O)CNC(=O)[C@H](C)NC(=O)[C@@H](NC(=O)[C@H](CCCCN)NC(=O)[C@H](C)NC(=O)[C@@H](NC(=O)[C@H](CCCCN)NC(=O)CNC(=O)[C@H](C)NC(=O)[C@@H](NC(=O)[C@@H](N)CCCCN)[C@@H](C)CC)[C@@H](C)CC)[C@@H](C)CC)C(=O)N[C@H](C(=O)N[C@@H](C)C(=O)N[C@@H](CCCCN)C(=O)N[C@H](C(=O)N[C@@H](C)C(=O)NCC(=O)N[C@@H](CCCCN)C(=O)N[C@H](C(=O)N[C@@H](C)C(N)=O)[C@@H](C)CC)[C@@H](C)CC)[C@@H](C)CC [Peptide (SEQ ID NO:48)] (H-KIAGKIAKIAG[Nva]IAKIAGKIA-NH2) was tested, and the “MIC (E)” value (E. coli ATCC 25922) was 8 µg/mL (≈ 3.93 µM) and the “MIC (S)” value (S. aureus ATCC 25923) was 4,8 μg/ml.
